Measurements reported in a compilation of properties of binary mixtures (doi:10.1021/ie501956x).
Some of these densities may be calculated back from excess volumes.

Test: xn = mol fraction of the nth substance listed
Settings: 101 kPa

## CCO + CC(=O)[O-].CC[n+]1ccn(C)c1
278.15 K, x1 = 1
  mass density: 802.1 kg/m3
288.15 K, x1 = 1
  mass density: 793.7 kg/m3
298.15 K, x1 = 1
  mass density: 785.1 kg/m3
308.15 K, x1 = 1
  mass density: 776.4 kg/m3
328.15 K, x1 = 1
  mass density: 758.6 kg/m3

## CC(=O)[O-].CC[n+]1ccn(C)c1 + CCO
278.15 K, x2 = 0
  mass density: 1111.6 kg/m3
278.15 K, x2 = 0.1
  mass density: 1100.7 kg/m3
278.15 K, x2 = 0.2999
  mass density: 1072.9 kg/m3
278.15 K, x2 = 0.4002
  mass density: 1055.6 kg/m3
278.15 K, x2 = 0.5001
  mass density: 1034.6 kg/m3
278.15 K, x2 = 0.6
  mass density: 1008.9 kg/m3
278.15 K, x2 = 0.7
  mass density: 977.4 kg/m3
278.15 K, x2 = 0.8
  mass density: 935.9 kg/m3
288.15 K, x2 = 0.201
  mass density: 1081.4 kg/m3
288.15 K, x2 = 0.2999
  mass density: 1066.6 kg/m3
288.15 K, x2 = 0.4002
  mass density: 1049.1 kg/m3
288.15 K, x2 = 0.5001
  mass density: 1028 kg/m3
288.15 K, x2 = 0.6
  mass density: 1002.1 kg/m3
288.15 K, x2 = 0.7
  mass density: 970.4 kg/m3
288.15 K, x2 = 0.9
  mass density: 873.4 kg/m3
298.15 K, x2 = 0
  mass density: 1099 kg/m3
298.15 K, x2 = 0.1
  mass density: 1088.1 kg/m3
298.15 K, x2 = 0.201
  mass density: 1075.2 kg/m3
298.15 K, x2 = 0.2999
  mass density: 1060.3 kg/m3
298.15 K, x2 = 0.6
  mass density: 995.4 kg/m3
298.15 K, x2 = 0.7
  mass density: 963.5 kg/m3
298.15 K, x2 = 0.8
  mass density: 921.5 kg/m3
298.15 K, x2 = 0.9
  mass density: 865.7 kg/m3
308.15 K, x2 = 0
  mass density: 1092.9 kg/m3
308.15 K, x2 = 0.1
  mass density: 1082 kg/m3
308.15 K, x2 = 0.201
  mass density: 1069 kg/m3
308.15 K, x2 = 0.4002
  mass density: 1036.2 kg/m3
308.15 K, x2 = 0.5001
  mass density: 1014.9 kg/m3
308.15 K, x2 = 0.7
  mass density: 956.6 kg/m3
308.15 K, x2 = 0.9
  mass density: 858.1 kg/m3
318.15 K, x2 = 0
  mass density: 1086.9 kg/m3
318.15 K, x2 = 0.5001
  mass density: 1008.4 kg/m3
318.15 K, x2 = 0.7
  mass density: 949.7 kg/m3
318.15 K, x2 = 0.8
  mass density: 907.1 kg/m3
328.15 K, x2 = 0
  mass density: 1080.8 kg/m3
328.15 K, x2 = 0.1
  mass density: 1069.8 kg/m3
328.15 K, x2 = 0.201
  mass density: 1056.7 kg/m3
328.15 K, x2 = 0.2999
  mass density: 1041.7 kg/m3
328.15 K, x2 = 0.4002
  mass density: 1023.6 kg/m3
328.15 K, x2 = 0.5001
  mass density: 1002 kg/m3
328.15 K, x2 = 0.6
  mass density: 975.5 kg/m3
328.15 K, x2 = 0.8
  mass density: 900 kg/m3
328.15 K, x2 = 0.9
  mass density: 842.7 kg/m3
338.15 K, x2 = 0.1
  mass density: 1063.8 kg/m3
338.15 K, x2 = 0.201
  mass density: 1050.6 kg/m3
338.15 K, x2 = 0.2999
  mass density: 1035.5 kg/m3
338.15 K, x2 = 0.4002
  mass density: 1017.3 kg/m3
338.15 K, x2 = 0.5001
  mass density: 995.6 kg/m3
338.15 K, x2 = 0.6
  mass density: 968.9 kg/m3
338.15 K, x2 = 0.7
  mass density: 936.1 kg/m3
338.15 K, x2 = 0.9
  mass density: 834.9 kg/m3
